# Measured values reported in PMC4242493.
# Some of the results follow. The list includes weakly bound sequences.
# Biological target: MaxL homodimer (UniProt P61244)
# Assay: universal protein-binding microarray (PBM)
# Conditions: PBS-based mixture, 10 nM His-tagged protein dimer, 2% milk, 200 ng/uL BSA, 50 ng/uL salmon testes DNA, 0.02% TX-100; detection with Alexa 488 anti-His …; high values mean tight binding; most listed sequences are background and not binding sites; double strand, one strand shown
# UniProt P61244, sequence (P61244 whole entry): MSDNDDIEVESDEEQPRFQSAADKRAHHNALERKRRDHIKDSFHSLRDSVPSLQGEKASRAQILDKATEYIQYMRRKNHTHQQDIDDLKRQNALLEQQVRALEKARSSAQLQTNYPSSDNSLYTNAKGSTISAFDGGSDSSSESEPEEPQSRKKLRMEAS
row,Sequence,binding signal (normalized occupancy)
1,GCACAAGC,0.0786
2,ATCATTTG,0.078
3,GCCTCATA,0.0768
4,GGACACAC,0.0782
5,GTAGAGAA,0.0715
6,TAATTGAA,0.0725
7,AATGTAAC,0.0797
8,TATATCGA,0.077
9,CCCCGCTA,0.0726
10,CTTCATTA,0.0765
11,CTACGAAC,0.0739
12,CTCCGTAA,0.0707
13,CAAAGTTA,0.0749
14,CGACTTCA,0.0712
15,CACCTCAA,0.0776
16,ATAGCCAA,0.0695
17,AGTGCTCC,0.0707
18,CCTCCGTC,0.0676
19,AAAGGGCA,0.0744
20,GCTGTTCC,0.069
21,AACTCACA,0.0776
22,CAGACCAC,0.0815
23,ATCATTAG,0.0789
24,CAGCTTTC,0.0677
25,CCCGCCTC,0.0782

row,Sequence,binding signal (normalized occupancy)
1,CCATTTTC,0.0787
2,CCCAAAAA,0.0755
3,CCGGCGCA,0.0737
4,AAGTGTGG,0.0819
5,CCCAATAC,0.0788
6,AAAGGCTG,0.0716
7,GACGACGA,0.0747
8,CCAAACAG,0.074
9,AGAGCTAG,0.0738
10,CATGAACC,0.0813
11,CCATTCGG,0.0809
12,AGCACGCG,0.156
13,ACCTACTA,0.0743
14,CATCGAAA,0.0708
15,ACTACCAG,0.0758
16,GGTTCACA,0.0775
17,ATGCTGCC,0.0877
18,AAACAACC,0.0764
19,GGGTTCCA,0.0735
20,CATCCTTC,0.0759
21,GAGCGTGA,0.0923
22,AATCAATT,0.0777
23,AGGTGTGC,0.0866
24,GGAGCTAA,0.0724
25,GTGTGAGA,0.0806

row,Sequence,binding signal (normalized occupancy)
1,ACCGTCTC,0.0705
2,GATAGCAA,0.0805
3,GGATCTGA,0.0762
4,GCTGACGA,0.072
5,CTACCTGA,0.0756
6,ATGCCTCA,0.0931
7,GGTGCCCA,0.0744
8,GAACCGTC,0.0675
9,CCCGCGTA,0.073
10,GCACCCCC,0.0761
11,GGAACTAA,0.0752
12,ACCTTCTG,0.0705
13,AAGTAAGA,0.0765
14,CGCCGACC,0.0727
15,AGTTCATC,0.0772
16,AATTAAGG,0.0739
17,ATCATAGA,0.0779
18,AACGCGGC,0.0757
19,CATGGACC,0.0885
20,AAATGATC,0.077
21,CGCAGGCA,0.0706
22,TGAATACA,0.0789
23,GGACGTGA,0.0764
24,CAGAAAGC,0.0706
25,ATACAGTA,0.0872

row,Sequence,binding signal (normalized occupancy)
1,AATGCCAT,0.0805
2,TTCCCAAA,0.0752
3,AGGGCTTG,0.0687
4,CGGTTCTA,0.0676
5,CAAGCACA,0.0792
6,TAGAGCGA,0.0751
7,ACACGTGC,0.567
8,CCATGCGC,0.121
9,ATCCCTAA,0.0765
10,ATCGCGCA,0.0728
11,CGCTGCCA,0.0759
12,ATCGGTCG,0.0689
13,AGGACAAT,0.0757
14,CAAAATCC,0.077
15,GACTAATC,0.0734
16,CAGCGACG,0.0736
17,ATTTTCAA,0.073
18,CGCACGGA,0.0722
19,AACGTCCC,0.0732
20,CTGTATAA,0.0827
21,CGGCCCTA,0.0716
22,GAACAGGC,0.0747
23,TGCCAAAA,0.0792
24,AGGCATGG,0.0974
25,GAAAGTTA,0.0806

row,Sequence,binding signal (normalized occupancy)
1,ATTGCGTA,0.08
2,AACTCGAA,0.0701
3,GCTATGGA,0.0781
4,CTAAATAC,0.0772
5,GCAAGACC,0.0691
6,ATGGTATC,0.0832
7,CTCTTAAC,0.078
8,CTGAGATC,0.0763
9,GGGGCATA,0.0817
10,AGCATAAT,0.0823
11,CAGGTAGG,0.0726
12,GCTGCTCA,0.0787
13,AGGTTCGG,0.0678
14,AGCGAATC,0.0773
15,ATCCCTGG,0.0736
16,TCTCTCAA,0.0726
17,CTGCACTA,0.0731
18,ACGCGAAC,0.076
19,TGTGGTAA,0.0816
20,ACTAACTG,0.0712
21,GACGTCAA,0.078
22,ACGCCCTA,0.0732
23,TGCGGCAA,0.0776
24,ACTCGGAG,0.0714
25,AAGTAACG,0.073

row,Sequence,binding signal (normalized occupancy)
1,CGAAGGAG,0.0687
2,ATTAAGCG,0.0782
3,CCGGGCCG,0.065
4,CGAATTCG,0.0678
5,ATATCTAA,0.0791
6,TCATATAA,0.085
7,CAATAATG,0.0823
8,ATTGTGAG,0.0775
9,GATCGGGC,0.0706
10,ACGGGGCG,0.0815
11,ACCCTGCT,0.0725
12,CAGGCGAG,0.073
13,CCAGGCTC,0.0701
14,CCACTGTC,0.0708
15,AGGCAAAA,0.0712
16,GCAAATCA,0.0792
17,ACCACCAG,0.0743
18,ACGGCAGT,0.0704
19,GACAAGTA,0.0778
20,GGTACGAA,0.0733
21,ACTCTCAG,0.0718
22,ATCTTTCG,0.0726
23,ACGGCGAT,0.0744
24,ACAAAGGT,0.0757
25,AACGCCTC,0.0708

row,Sequence,binding signal (normalized occupancy)
1,CCGTGCTC,0.0737
2,CGTTCTTA,0.0701
3,CGCGGCAC,0.0765
4,ACTTGTTC,0.0741
5,ACGCGTTC,0.0785
6,ACTCTTTA,0.0729
7,GCGGAAAA,0.0713
8,CAATTCTG,0.074
9,CGATATGC,0.0806
10,GCGCCTGA,0.0712
11,TGCTCGAA,0.0717
12,AGCCCTCA,0.0761
13,CACAAAGG,0.0753
14,CCGCCTTA,0.0713
15,AGCGCAAT,0.0765
16,GCATTGTA,0.0806
17,CTTCCGGC,0.0677
18,CACAGTGC,0.0774
19,CGATGGCG,0.0725
20,CCCGCCTA,0.0791
21,GCCGATTA,0.0745
22,GCCCTCAC,0.078
